Measurements reported in PubChem BioAssay AID1645887 (National Center for Advancing Translational Sciences (NCATS), 2021).
Where “and” joins values, the source holds several entries; their conditions need not be identical. Equal entries are not always repeated. In all, about 16,000 compounds went through this assay and about 40 (0.2%) were called active. Another 1% or so got no clear call; they are omitted. The call rests on the fitted dose curve; in most records, active means well fitted activation curve with a large enough effect; inconclusive means small, poorly fitted or top-dose-only effect, or another doubt; inactive means no such curve, though single readings can be large or run the other way. The list shows a part of the results.

What follows are compounds tested against Rap guanine nucleotide exchange factor 4 (Homo sapiens) (UniProt Q8WZA2) (assay: Validation qHTS for agonist of cAMP-regulated guanine nucleotide exchange factor 4 (EPAC2)). Conditions: EPAC2 Rap1B BODIPY-GDP exchange, fluorescence; activation: stronger effect = higher value.
Sequence of UniProt Q8WZA2 (Q8WZA2 whole entry, looked up): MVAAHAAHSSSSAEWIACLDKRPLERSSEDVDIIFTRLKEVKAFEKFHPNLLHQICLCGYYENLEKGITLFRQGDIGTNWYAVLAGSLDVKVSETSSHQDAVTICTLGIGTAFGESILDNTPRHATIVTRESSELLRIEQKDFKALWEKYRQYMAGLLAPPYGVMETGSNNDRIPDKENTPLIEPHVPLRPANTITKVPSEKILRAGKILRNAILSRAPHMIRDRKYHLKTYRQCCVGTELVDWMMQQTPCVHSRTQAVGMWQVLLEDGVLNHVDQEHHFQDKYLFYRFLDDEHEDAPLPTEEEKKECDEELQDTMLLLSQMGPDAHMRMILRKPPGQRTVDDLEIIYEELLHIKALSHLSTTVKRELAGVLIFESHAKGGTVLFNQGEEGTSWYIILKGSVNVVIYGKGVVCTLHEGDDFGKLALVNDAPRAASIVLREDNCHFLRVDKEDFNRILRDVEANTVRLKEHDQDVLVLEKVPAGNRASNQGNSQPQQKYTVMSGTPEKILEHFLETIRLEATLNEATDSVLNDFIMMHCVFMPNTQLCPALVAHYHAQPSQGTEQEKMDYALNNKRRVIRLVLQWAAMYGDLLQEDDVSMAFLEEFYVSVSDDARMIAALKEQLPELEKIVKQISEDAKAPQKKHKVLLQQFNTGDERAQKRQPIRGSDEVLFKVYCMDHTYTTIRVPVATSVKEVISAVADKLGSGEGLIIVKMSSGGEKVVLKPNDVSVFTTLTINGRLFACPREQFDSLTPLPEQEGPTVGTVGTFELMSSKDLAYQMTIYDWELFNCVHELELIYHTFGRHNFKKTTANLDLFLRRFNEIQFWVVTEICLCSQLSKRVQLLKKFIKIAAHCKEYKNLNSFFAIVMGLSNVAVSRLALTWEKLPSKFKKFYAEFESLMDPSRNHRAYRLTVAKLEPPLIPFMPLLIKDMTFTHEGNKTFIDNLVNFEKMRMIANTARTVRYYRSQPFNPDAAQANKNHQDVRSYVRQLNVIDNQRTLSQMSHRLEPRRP
In short: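 Fluorescent exchange assay: 100 nM EPAC2 with 250 nM RAP1B-BODIPY-GDP and 50 uM GDP; compound added, 5 min at room temperature, then read (ex 480/em 540 nm) every 5 min for 30 min. Normalized to 6.5 mM cAMP agonist control.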
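Further: exchange makes BODIPY-GDP fluorescence drop when released from Rap1B; series mostly up to about 150 µM.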
On the % scale 0 is the no-effect control and ±100 the full control effect.

activation, inactive:
Cc1cc(C)n(-c2cccc(C(=O)NCC3Cc4cccc(-c5cccnc5)c4O3)c2)n1 (centres undefined) 2.23%, CC(C)CN1CC2(CCN(C(=O)c3ccco3)CC2)C1 3.03%, CNCCc1ccccn1 -10.8% and -19.2%, C[C@@H]1CN(Cc2ccc3c(c2)CN(Cc2cccc(O)c2)CCO3)C[C@H](C)O1 -13.4%, COc1ccc(Oc2ncc3ncc(=O)n(CCc4ccccc4)c3n2)cc1 -5.59%, Cc1cccc2nc(CNC(=O)CN3Cc4ccccc4OC(c4ccccc4F)C3)cn12 (centres undefined) -19.4%, Cc1noc(C)c1C(=O)N1CCC2(CCN(Cc3ccncc3)CC2)CC1 -1.44%, CC1=C(C)C(=O)C(C(CCCCCC(=O)O)c2ccccc2)=C(C)C1=O (centres undefined) -13.1%, Cn1cc(-c2nc3cnc(N4CCNCC4)nc3n(C3CC3)c2=O)c2ccccc21 -16.5%, CC(=O)N1CCC2(CCN(Cc3ccncc3)CC2)CC1 -8.39%, O=C1C[C@H]2C=CCc3cccc(c32)CN1Cc1ccc(Cl)cc1 -6.37%, C[C@@H](C1[C@@H](O)CC2C3C=CC4C[C@@H](O)CC[C@]4(C)[C@H]3CC[C@@]21C)[C@@H]1CCCCN1 (some centres undefined) -6.44%, COC(=O)C1CCN(c2nc(CN(C)C3CCOC3)nc3cc(OC)c(OC)cc23)CC1 (centres undefined) -3.51%, N#C/C(=C\c1ccc(O)c(O)c1)C(=O)NCCCCc1ccccc1 -20.5%, Cc1cnc(-n2ncc(C(=O)NCc3ccncc3)c2C2CC2)nc1-c1cccs1 -1.24%, CCCCCCCCCCCCCCCC(=O)OC[C@H](O)[C@H]1OC(=O)C(O)=C1O -18.7%, CC1(C)C(=O)C=C[C@@]2(C)C1C=C[C@@]1(C)C2CC[C@@]2(C)C(c3ccoc3)OC(=O)C3OC312 (some centres undefined) -9.61%, COC(=O)[C@@H]1CCCN1C(=O)c1cc(NC(=O)C2CCC2)c2c(c1)nc(-c1ccncc1)n2C -5.92%, COCCn1c(=O)c(-c2cccs2)nc2cnc(N(C)C)nc21 27.3%, CC12C(=O)OC(=O)C1(C)C1CCC2O1 (centres undefined) 1.27% and -5.98% and 7.78%, CC(C)c1cccc(O)c(=O)c1 -1.79% and -12.9%, Nc1nc2c(ncn2COC(CO)CO)c(=O)[nH]1 -25.7% and -11.1%, COCCn1c(=O)cnc2cnc(Nc3cccc(OC)c3)nc21 -13.4%, COc1ccc(-c2cnc(-c3cccnc3)o2)cc1 -23%, CC1(C)Oc2ccc3ccc(=O)oc3c2CC1=O -25.4%, CCNc1ncc2nc(-c3ccc(F)cc3)c(=O)n(-c3ccccc3)c2n1 -1.12%, O=C(O)CCCCCCCCc1cn(Cc2ccc(C(=O)c3ccccc3)cc2)nn1 -9.58%, CO[C@H]1C=CO[C@@]2(C)Oc3c(C)c(O)c4c(O)c(c(/C=N/N5CCN(C)CC5)c(O)c4c3C2=O)NC(=O)/C(C)=C\C=C[C@H](C)[C@H](O)[C@@H](C)[C@@H](O)[C@@H](C)[C@H](OC(C)=O)[C@@H]1C -42.4%, CSc1nnc(CNS(=O)(=O)c2ccc(F)cc2F)n1-c1ccccc1C -2.89%, C[C@H](C(=O)O)c1cccc(C(=O)c2ccccc2)c1 4.65%, CS(=O)(=O)Nc1c(O)ccc2c1CCC[C@H]2C1=NCCN1 -8.26%, COC(=O)N1CCC2(CC1)CN(c1ccccn1)C2 -16.5%, NC1(C(=O)O)CC1 -23.4% and -13.6%, COc1ccc(-c2cc(=O)c3c(O)c(OC)c(OC)c(OC)c3o2)cc1 -11.7%, Fc1ccc(Nc2ccnc(-c3ccc4c(c3)OCO4)n2)cc1 -18.9%, O=C1CCN(CCc2ccccc2)CCN1[C@H](COc1ccccc1)Cc1ccccc1 -19.6%, Oc1cc2c(cc1O)C1c3ccc(O)c(O)c3OCC1(O)C2 (centres undefined) -18.1%, O=C(C[n+]1ccncc1)c1ccc(Br)cc1 -19.2%, Cc1noc(NS(=O)(=O)c2cccc3c(N(C)C)cccc23)c1C -7.5%, Cc1c(C(=O)NCc2nccs2)cnn1-c1ncc2c(n1)-c1ccccc1CC2 3.06%, CCN(CC)c1ccc(/C=C/c2ccccn2)cc1 6.18%, COC(=O)N1CCC2(CCN(Cc3nccs3)CC2)CC1 -22.7%, Cc1ccccc1-c1ccc2ncnc(N(C)C)c2c1 -14%, COC(=O)N1CCC2(CCN(C(=O)NC(C)C)CC2)CC1 5.87%, CCCCC(C)(O)C/C=C/[C@H]1[C@H](O)CC(=O)[C@@H]1CCCCCCC(=O)O (some centres undefined) 10.1%, CCN(CC)C(=O)c1ccc(O)c(OC)c1 3.98% and -4.84% and -28.6%, COc1cccc(Nc2ncc3ncc(=O)n(CCC#N)c3n2)c1 -0.378%, CNc1nc(-c2ccc(C(=O)N(C)C)cc2)nc2ccccc12 -6.78%, CC(=O)[C@@]1(O)CC[C@H]2[C@@H]3CCC4=CC(=O)CC[C@]4(C)[C@H]3CC[C@@]21C -5.73% and -12.3%, COc1cccc(-c2ccnc(-n3ncc(C(=O)NCc4cccnc4)c3C3CC3)n2)c1 -8.44%, CC(NC(=O)c1cc(F)ccc1F)c1nnc2n1CCN(Cc1ccccc1O)CC2 (centres undefined) 0.318%, COCc1c(C(=O)NC2CCCCC2)cnn1-c1nccc(-c2ccccc2OC)n1 -11.4%, N#Cc1cccc(NC(=O)N2CCCC3(CCN(S(=O)(=O)c4ccccc4)CC3)C2)c1 1.25%, Cc1noc(C)c1-c1ccc2ncnc(NCc3cccs3)c2c1 -22.2%
